Here are results for 31 sequences from PMC12820563.

The other results are listed elsewhere or left out. The list includes weakly bound sequences.

For the experiment, the target named is T1, MBP-FoxP3dN (UniProt Q99JB6).
T1 sequence: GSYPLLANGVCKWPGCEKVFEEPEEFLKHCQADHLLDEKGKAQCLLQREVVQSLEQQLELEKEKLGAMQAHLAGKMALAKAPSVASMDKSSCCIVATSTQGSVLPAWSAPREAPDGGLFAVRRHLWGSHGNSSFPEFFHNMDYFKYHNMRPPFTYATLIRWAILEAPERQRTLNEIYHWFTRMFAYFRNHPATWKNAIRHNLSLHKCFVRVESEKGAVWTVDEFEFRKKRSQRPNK
Kind of experiment: PD-seq (MBP pull-down with sequencing). Conditions: 20 mM Tris-HCl pH 7.5, 100 mM NaCl, 1.5 mM MgCl2, 0.4 uM protein, 0.1 uM dsDNA library, 30 min, room temperature, amylose pull-down; high values mean tight binding; double strand, one strand shown.
With “GATGATTGTTCTCCCAGCTGATGAATTCACCTTCTCGAGTAAACAAATTTTCCTAATCTTTCTGTTCAAGCGCCATCTAC”, the binding signal (RPM ratio (pull-down/input)) was found to be 0.345.

“GATGATTGTTCTCCCAGCTGATGAATTGTATCGCTCGAGTAAACAAATTTTCCTAATCTTTCTGTTCAAGCGCCATCTAC”: the binding signal (RPM ratio (pull-down/input)) was 1.16.

In the case of “GATGATTGTTCTCCCAGCTGATGAATTCAATTTTTCGAGTAAACAAATTTTCCTAATCTTTCTGTTCAAGCGCCATCTAC”, the binding signal (RPM ratio (pull-down/input)) was found to be 0.853.

Consider “GATGATTGTTCTCCCAGCTGATGAATTCTGGAAGTCGAGTAAACAAATTTTCCTAATCTTTCTGTTCAAGCGCCATCTAC”, for which the binding signal (RPM ratio (pull-down/input)) is 0.156.

As to “GATGATTGTTCTCCCAGCTGATGAATTGACAGTCTCGAGTAAACAAATTTTCCTAATCTTTCTGTTCAAGCGCCATCTAC”, the binding signal (RPM ratio (pull-down/input)) turned out to be 0.505.

As for “GATGATTGTTCTCCCAGCTGATGAATTTGCCCAGTCGAGTAAACAAATTTTCCTAATCTTTCTGTTCAAGCGCCATCTAC”, the binding signal (RPM ratio (pull-down/input)) turned out to be 0.28.

“GATGATTGTTCTCCCAGCTGATGAATTGGTTCGGTCGAGTAAACAAATTTTCCTAATCTTTCTGTTCAAGCGCCATCTAC”: the binding signal (RPM ratio (pull-down/input)) amounted to 0.261.

“GATGATTGTTCTCCCAGCTGATGAATTGTCCCTCTCGAGTAAACAAATTTTCCTAATCTTTCTGTTCAAGCGCCATCTAC”: the binding signal (RPM ratio (pull-down/input)) turned out to be 0.433.

Turning to “GATGATTGTTCTCCCAGCTGATGAATTATTCGTTTCGAGTAAACAAATTTTCCTAATCTTTCTGTTCAAGCGCCATCTAC”, the binding signal (RPM ratio (pull-down/input)) is 0.39.

Consider “GATGATTGTTCTCCCAGCTGATGAATTTAGTCCCTCGAGTAAACAAATTTTCCTAATCTTTCTGTTCAAGCGCCATCTAC”, for which the binding signal (RPM ratio (pull-down/input)) stood at 0.694.

Regarding “GATGATTGTTCTCCCAGCTGATGAATTTCTTCCTTCGAGTAAACAAATTTTCCTAATCTTTCTGTTCAAGCGCCATCTAC”, the binding signal (RPM ratio (pull-down/input)) came out at 0.237.

Turning to “GATGATTGTTCTCCCAGCTGATGAATTTATTAAATCGAGTAAACAAATTTTCCTAATCTTTCTGTTCAAGCGCCATCTAC”, the binding signal (RPM ratio (pull-down/input)) is 0.333.

As to “GATGATTGTTCTCCCAGCTGATGAATTTCCTCACTCGAGTAAACAAATTTTCCTAATCTTTCTGTTCAAGCGCCATCTAC”, the binding signal (RPM ratio (pull-down/input)) was determined as 0.285.

For “GATGATTGTTCTCCCAGCTGATGAATTGGGCAATTCGAGTAAACAAATTTTCCTAATCTTTCTGTTCAAGCGCCATCTAC”, the binding signal (RPM ratio (pull-down/input)) is 3.15.

Take “GATGATTGTTCTCCCAGCTGATGAATTTGAATGCTCGAGTAAACAAATTTTCCTAATCTTTCTGTTCAAGCGCCATCTAC”: the binding signal (RPM ratio (pull-down/input)) turned out to be 1.31.

Regarding “GATGATTGTTCTCCCAGCTGATGAATTAGCCAGGTCGAGTAAACAAATTTTCCTAATCTTTCTGTTCAAGCGCCATCTAC”, the binding signal (RPM ratio (pull-down/input)) came to 0.222.

Regarding “GATGATTGTTCTCCCAGCTGATGAATTGGTGATTTCGAGTAAACAAATTTTCCTAATCTTTCTGTTCAAGCGCCATCTAC”, the binding signal (RPM ratio (pull-down/input)) amounted to 1.23.

Turning to “GATGATTGTTCTCCCAGCTGATGAATTGGTCAGATCGAGTAAACAAATTTTCCTAATCTTTCTGTTCAAGCGCCATCTAC”, the binding signal (RPM ratio (pull-down/input)) came to 0.224.

With “GATGATTGTTCTCCCAGCTGATGAATTTATTGACTCGAGTAAACAAATTTTCCTAATCTTTCTGTTCAAGCGCCATCTAC”, the binding signal (RPM ratio (pull-down/input)) is 5.75.

In the case of “GATGATTGTTCTCCCAGCTGATGAATTAACGTTCTCGAGTAAACAAATTTTCCTAATCTTTCTGTTCAAGCGCCATCTAC”, the binding signal (RPM ratio (pull-down/input)) was 0.551.

As for “GATGATTGTTCTCCCAGCTGATGAATTTCAGGTGTCGAGTAAACAAATTTTCCTAATCTTTCTGTTCAAGCGCCATCTAC”, the binding signal (RPM ratio (pull-down/input)) was found to be 0.589.

With “GATGATTGTTCTCCCAGCTGATGAATTTATGTTCTCGAGTAAACAAATTTTCCTAATCTTTCTGTTCAAGCGCCATCTAC”, the binding signal (RPM ratio (pull-down/input)) came out at 4.5.

As for “GATGATTGTTCTCCCAGCTGATGAATTGTTATACTCGAGTAAACAAATTTTCCTAATCTTTCTGTTCAAGCGCCATCTAC”, the binding signal (RPM ratio (pull-down/input)) is 1.21.

As to “GATGATTGTTCTCCCAGCTGATGAATTAAGTGTATCGAGTAAACAAATTTTCCTAATCTTTCTGTTCAAGCGCCATCTAC”, the binding signal (RPM ratio (pull-down/input)) was determined as 2.15.

As to “GATGATTGTTCTCCCAGCTGATGAATTGTGCCTATCGAGTAAACAAATTTTCCTAATCTTTCTGTTCAAGCGCCATCTAC”, the binding signal (RPM ratio (pull-down/input)) was 3.46.

“GATGATTGTTCTCCCAGCTGATGAATTCTTTATTTCGAGTAAACAAATTTTCCTAATCTTTCTGTTCAAGCGCCATCTAC”: the binding signal (RPM ratio (pull-down/input)) came out at 0.422.

Consider “GATGATTGTTCTCCCAGCTGATGAATTAGATAGCTCGAGTAAACAAATTTTCCTAATCTTTCTGTTCAAGCGCCATCTAC”, for which the binding signal (RPM ratio (pull-down/input)) amounted to 0.537.

“GATGATTGTTCTCCCAGCTGATGAATTACTGGAGTCGAGTAAACAAATTTTCCTAATCTTTCTGTTCAAGCGCCATCTAC”: the binding signal (RPM ratio (pull-down/input)) worked out at 0.212.

Turning to “GATGATTGTTCTCCCAGCTGATGAATTAAACCACTCGAGTAAACAAATTTTCCTAATCTTTCTGTTCAAGCGCCATCTAC”, the binding signal (RPM ratio (pull-down/input)) came to 0.506.

As for “GATGATTGTTCTCCCAGCTGATGAATTCCAGAGTTCGAGTAAACAAATTTTCCTAATCTTTCTGTTCAAGCGCCATCTAC”, the binding signal (RPM ratio (pull-down/input)) stood at 0.346.

In the case of “GATGATTGTTCTCCCAGCTGATGAATTCGTGGAGTCGAGTAAACAAATTTTCCTAATCTTTCTGTTCAAGCGCCATCTAC”, the binding signal (RPM ratio (pull-down/input)) was found to be 0.345.
